# Screen size: about 360,000 compounds; about 660 (0.18%) were called active. This list was built around the results that the source calls inconclusive (neither active nor inactive); the mix of calls is not that of the screen. Calls follow the shape of the dose curve; as a rule, active = well fitted inhibition curve with a large enough effect; inconclusive = small, poorly fitted or top-dose-only effect; inactive = no such curve, though single readings can be large or run the other way. Where the call is inconclusive, the potency comes from a doubtful curve fit.
# Target: Rap guanine nucleotide exchange factor 4 (Homo sapiens) (UniProt Q8WZA2)
# Chain of UniProt Q8WZA2 (Q8WZA2 whole entry, looked up): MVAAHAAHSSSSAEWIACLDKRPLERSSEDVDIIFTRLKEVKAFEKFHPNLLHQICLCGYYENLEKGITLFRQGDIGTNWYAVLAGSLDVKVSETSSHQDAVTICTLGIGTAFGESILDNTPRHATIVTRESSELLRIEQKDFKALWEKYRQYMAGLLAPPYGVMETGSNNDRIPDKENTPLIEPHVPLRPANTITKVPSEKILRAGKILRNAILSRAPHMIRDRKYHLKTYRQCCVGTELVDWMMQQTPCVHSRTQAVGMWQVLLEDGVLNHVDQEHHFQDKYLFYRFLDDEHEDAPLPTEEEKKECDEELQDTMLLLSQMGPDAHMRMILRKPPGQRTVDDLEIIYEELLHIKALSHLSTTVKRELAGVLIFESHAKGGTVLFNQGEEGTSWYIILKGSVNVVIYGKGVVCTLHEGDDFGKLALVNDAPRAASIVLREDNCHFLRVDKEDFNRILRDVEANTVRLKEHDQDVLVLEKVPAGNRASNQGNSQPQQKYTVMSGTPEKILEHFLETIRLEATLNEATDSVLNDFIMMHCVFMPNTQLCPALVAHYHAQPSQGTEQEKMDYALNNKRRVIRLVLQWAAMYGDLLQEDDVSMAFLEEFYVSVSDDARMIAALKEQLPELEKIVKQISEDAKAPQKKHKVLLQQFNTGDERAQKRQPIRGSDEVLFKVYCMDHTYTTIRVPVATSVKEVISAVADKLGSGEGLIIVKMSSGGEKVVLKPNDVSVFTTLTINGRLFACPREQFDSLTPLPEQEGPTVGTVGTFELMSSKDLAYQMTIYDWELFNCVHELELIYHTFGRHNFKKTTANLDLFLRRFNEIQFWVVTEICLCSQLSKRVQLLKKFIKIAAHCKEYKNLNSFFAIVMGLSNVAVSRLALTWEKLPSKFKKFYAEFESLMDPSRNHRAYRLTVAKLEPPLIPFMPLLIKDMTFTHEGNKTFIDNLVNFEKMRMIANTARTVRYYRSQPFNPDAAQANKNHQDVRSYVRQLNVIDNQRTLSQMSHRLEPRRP
# Experiment: qHTS for Antagonist of cAMP-regulated guanine nucleotide exchange factor 2 (EPAC2): primary screen; also: nearly all actives have a fitted effect of over 45% in size
# Conditions: EPAC2 GEF exchange of Rap1B-BODIPY-GDP, fluorescence; activity, negative = inhibition: at 114 µM (top of the series) unless noted
# % is scaled to controls: 0 for no effect and ±100 for the full control effect; potency is read from the fitted curve at half-maximal effect; tags tell the direction and shape of the fitted curve.
SMILES,Potency,"activity, negative = inhibition"
CCCCCCCCN1C(=O)[C@H](CC(=O)N2CCCC2)C[C@@]2(C(=O)OC)CC(C)(C)CC=C12,"inconclusive: 50.1 µM [inhibitor, partial curve]",
COc1ccc(-n2ncc3c(=O)n(CC(=O)Nc4ccc5c(c4)OCCO5)cnc32)cc1,"inconclusive: 28.2 µM [inhibitor, partial curve]",
O=C(NN=Cc1ccccc1)C(Oc1ccccc1)c1ccccc1 (stereo not drawn),"inconclusive: 39.8 µM [inhibitor, single point]",
CCOc1cccc(CNc2ccc(O)cc2)c1OCc1ccc(Cl)cc1Cl,"inconclusive: 50.1 µM [inhibitor, partial curve]",
NC(=O)N/N=C/c1ccccc1OC(=O)c1cc2ccccc2oc1=O,inactive,
Cc1cc(C)c(-c2cc(NC(=O)COC(=O)c3ccc(NC(=O)CC#N)cc3)n(-c3ccccc3)n2)cc1C,"inconclusive: 63.1 µM [inhibitor, partial curve]",
COc1ccccc1C(=O)NCC(=O)NCc1cc(=O)n(C)c(=O)n1C,inactive,
O=C(O)c1ccc(N/N=C/C=C/c2ccc([N+](=O)[O-])o2)cc1,"inconclusive: 89.1 µM [inhibitor, single point]",
O=C(N[C@H](Cc1ccc(Cl)cc1)C(=O)O)OCC1c2ccccc2-c2ccccc21,"inconclusive: 44.7 µM [inhibitor, partial curve]",
Cc1c(C(=O)N(Cc2ccccc2Cl)C2CCS(=O)(=O)C2)oc2ccccc12 (stereo not drawn),"inconclusive: 35.5 µM [inhibitor, partial curve]",
COc1cc(C)c(C(=O)Oc2cc(C)c(C(=O)O)c(O)c2C)c(O)c1C(=O)O,"inconclusive: 39.8 µM [inhibitor, partial curve]",
O=C(NC(=S)Nc1ccccc1Br)c1ccco1,inactive,
COc1cc(CCN(C(=O)c2cccc(S(C)(=O)=O)c2)C(CCc2ccccc2)c2nc3ccccc3[nH]2)cc(OC)c1 (stereo not drawn),"inconclusive: 100 µM [inhibitor, single point]",
Cc1cccc(NC(=O)CSc2cccc3cccnc23)c1C,inactive,
C#CCN(C[C@@H]1[C@@H](OC(=O)Nc2cccs2)[C@@H](OC(=O)Nc2cccs2)Cn2c(=O)n(CCCCCC)c(=O)n21)S(=O)(=O)c1ccc(C)cc1,inactive,
COC(=O)c1nc(NC(=O)c2ccc(C(C)(C)C)cc2)n[nH]1,"inconclusive: 100 µM [inhibitor, partial curve, poor fit]",
Brc1cccc(OCCSc2ncccn2)c1,"inconclusive: 31.6 µM [inhibitor, partial curve]",
COCCNc1nc(Nc2ccccc2Cl)c2sccc2n1,"inconclusive: 39.8 µM [inhibitor, partial curve]",
COc1ccc(S(=O)(=O)N2CCCC2c2cccs2)cc1 (stereo not drawn),"inconclusive: 56.2 µM [inhibitor, partial curve]",
COc1ccc(/C=N/NC(=O)COc2ccc(Cl)cc2Cl)cc1Cn1nc(C)cc1C,,inconclusive: -15.4% [inhibitor] [at 57.1 µM]
COc1ccccc1CN1CCN(Cc2ccc3ccccc3c2)CC1,inactive,
CC1(Cc2ccc(Cl)cc2)C(=O)Nc2c(Cl)cccc21 (stereo not drawn),"inconclusive: 44.7 µM [inhibitor, partial curve]",
CSc1ccc(/C=N/Nc2ccc(Cl)c(C(=O)O)c2)cc1,inactive,

SMILES,Potency,"activity, negative = inhibition"
COc1ccc(C(O)c2nc(-c3ccccc3)cs2)cc1 (stereo not drawn),"inconclusive: 35.5 µM [inhibitor, partial curve, poor fit]",
CC1=C(C(=O)OCc2ccc3c(c2)OCO3)C(c2ccccc2OCc2ccccc2)NC(=O)N1 (stereo not drawn),inactive,
C[C@H](NC(=O)c1[nH]cnc1C(=O)Nc1ccc(Cl)cc1)c1ccccc1,"inconclusive: 39.8 µM [inhibitor, single point]",
CCOc1ccc2oc(C(=O)N(C)CCc3ccc(OC)c(OC)c3)c(C)c2c1,inactive,
Cc1ccc(C)n1Cc1ccc(C(=O)O)cc1,"inconclusive: 11.2 µM [inhibitor, full curve, poor fit]",
CCc1nc2ccc(C(=O)N3CCN(c4ccccc4)CC3)cc2nc1CC,inactive,
O=C(Nc1ccc(Oc2ncnc3cc(Cl)ccc23)nc1)Nc1cccc(C(F)(F)F)c1,inactive,
CCC(=O)C(C#N)(c1ccc(OC)c(OC)c1)C(C)C (stereo not drawn),"inconclusive: 50.1 µM [inhibitor, partial curve]",
O=C(CN1C(=O)/C(=C2/SC(=S)N(CCS(=O)(=O)O)C2=O)c2ccccc21)Nc1cccc(Br)c1,"inconclusive: 79.4 µM [inhibitor, single point]",
CS/C(=N\S(=O)(=O)c1cccs1)Nc1ccc(Br)cc1F,"inconclusive: 100 µM [inhibitor, partial curve, poor fit]",
CCOc1ccc(Cl)cc1C1=CC(=O)C[C@H](c2ccc(OC)cc2)C1,"inconclusive: 10 µM [inhibitor, full curve]",
NC(=O)CC(NC(=O)Cc1cccc2ccccc12)c1ccc(NC2CCN(Cc3ccccc3)CC2)c([N+](=O)[O-])c1 (stereo not drawn),inactive,
Cc1noc(C)c1NC(=O)N1CCN(Cc2ccccc2)CC1,inactive,
Cc1cccc(/C=C(\c2nc3ccccc3[nH]2)S(=O)(=O)c2ccccc2)c1,inactive,
CCC(Sc1nc2ccsc2c(=O)n1Cc1ccc(C(=O)O)cc1)C(=O)Nc1ccc(C)c(Cl)c1 (stereo not drawn),"inconclusive: 44.7 µM [inhibitor, partial curve]",
O=C(O)COc1ccc(C=C2SC(=S)N(c3ccccc3)C2=O)cc1,"inconclusive: 56.2 µM [inhibitor, partial curve]",
Cc1nc(NS(=O)(=O)c2ccccc2)sc1NC(=O)Nc1ccc(Cl)cc1,inactive,
Cc1cccc(OC(C)C(=O)Nc2ccc(S(=O)(=O)N3CCCC3)cc2)c1 (stereo not drawn),inactive,
COc1ccc(NC(=O)c2cc(Cl)ccc2Cl)c([N+](=O)[O-])c1,inactive,
Cc1ccccc1C(=O)NC(=S)Nc1ccccc1N1CCCC1,"inconclusive: 79.4 µM [inhibitor, partial curve]",
C=C(C(=O)Nc1ccccc1)c1ccc(C)cc1,"inconclusive: 100 µM [inhibitor, single point]",
O=C(NCc1ccccc1)c1sc(=S)n2c1[nH]c(=O)c1ccccc12,"inconclusive: 70.8 µM [inhibitor, single point]",
CC(=O)N1N=C2c3ccccc3CCC2C1c1ccc(F)cc1 (stereo not drawn),"inconclusive: 50.1 µM [inhibitor, partial curve]",

SMILES,Potency,"activity, negative = inhibition"
COc1ccc(S(=O)(=O)Nc2ccc(F)cc2)c(C)c1C,"inconclusive: 44.7 µM [inhibitor, partial curve]",
CN(CCO)c1nc2c(c(=O)n(Cc3ccc(Cl)cc3)c(=O)n2C)n1C,,inconclusive: -10.9% [inhibitor]
Cn1c(=O)oc2ccccc2c1=O,,inconclusive: -6.07% [inhibitor]
OC(c1cc(Cl)cc(Cl)c1)c1ncc(-c2cccc(F)c2)[nH]1 (stereo not drawn),"inconclusive: 12.6 µM [inhibitor, full curve]",
COc1cc(NS(=O)(=O)c2ccc(NC(=S)NC(=O)/C=C/c3ccc(OC)c(OC)c3)cc2)ncn1,"inconclusive: 25.1 µM [inhibitor, partial curve]",
COc1ccc(OC)c(NC(=O)c2sc3nc(Cc4ccccc4)cc(C(F)(F)F)c3c2N)c1,"inconclusive: 50.1 µM [inhibitor, partial curve]",
COc1ccc([C@H]2CC(=O)C=C(c3ccccc3OC)C2)cc1OC,"inconclusive: 44.7 µM [inhibitor, partial curve]",
CCOC(=O)c1ccc(S(=O)(=O)Nc2cc(S(=O)(=O)N3CCOCC3)ccc2O)cc1,inactive,
Cc1ccc2nc(N3C(=O)C(O)=C(C(=O)c4ccc(C)o4)C3c3cccc(O)c3)sc2c1 (stereo not drawn),inactive,
O=C(Nc1ccccc1N1CCCCC1)c1cccc(Cl)c1,"inconclusive: 50.1 µM [inhibitor, partial curve]",
CCOC(=O)C1CCCN(C(=O)CCc2nc3sc4c(c3c(=O)[nH]2)CCCC4)C1 (stereo not drawn),inactive,
CCn1cc(CN2N=C(C)CC2c2ccccc2)c(C)n1 (stereo not drawn),"inconclusive: 50.1 µM [inhibitor, partial curve]",
O=C(O)c1ccc(N/N=C/c2cc3c(cc2[N+](=O)[O-])OCO3)cc1,"inconclusive: 20 µM [inhibitor, full curve]",
Cn1cccc1/C=C1\CCC/C(=C\c2cccn2C)C1=O,"inconclusive: 79.4 µM [inhibitor, single point]",
CN(C)CCNC(C(=O)Nc1cccc(C(F)(F)F)c1)c1ccccc1 (stereo not drawn),inactive,
Cc1c2cn[nH]c(=O)c2c(C)n1-c1ccccc1,"inconclusive: 15.8 µM [inhibitor, full curve]",
O=[N+]([O-])c1ccc2nc(NS(=O)(=O)c3ccc(Cl)cc3)sc2c1,"inconclusive: 17.8 µM [inhibitor, full curve]",
c1ccc(-c2nc3ccccc3[nH]2)cc1,inactive,
CC(=O)NS(=O)(=O)c1ccc(Nc2ccc([N+](=O)[O-])c3nonc23)cc1,"inconclusive: 50.1 µM [inhibitor, partial curve]",
CCCCN(C)CCCNC(=O)CN1C(=O)CSc2ccc(S(=O)(=O)N3CCOCC3)cc21,"inconclusive: 100 µM [inhibitor, partial curve, poor fit]",
CCOc1cc(/C=C2/C(=N)N3C(=NC2=O)SN=C3S(=O)(=O)C(C)C)ccc1OC(=O)c1ccco1,"inconclusive: 79.4 µM [inhibitor, partial curve]",
COC(=O)c1ccc(CSc2ccc3nnc(-c4cccc(F)c4)n3n2)o1,"inconclusive: 20 µM [inhibitor, full curve]",

# From PubChem BioAssay AID720708 (National Center for Advancing Translational Sciences (NCATS), 2013)
